The antibiotic and cytotoxicity screens of Wong et al. (2023)
The other results are listed elsewhere or left out.

System: HSkMC (human skeletal muscle cells)
Experiment: cytotoxicity call (relative viability < 0.9)
Details: 10 µM

Compound | cytotoxicity call
O=C(C[C@H]1CC[C@H]2[C@@H](COC[C@@H](O)CN2C(=O)c2ccncc2)O1)NC1CCC1 | inactive
C[C@H]1CCCCO[C@@H](CN(C)C(=O)Nc2ccccc2)[C@@H](C)CN([C@@H](C)CO)C(=O)c2cc(NC(=O)Nc3cccc4ccccc34)ccc2O1 | inactive
O=C(C[C@H]1CC[C@H]2[C@@H](COC[C@H](O)CN2C(=O)Nc2ccc3c(c2)OCO3)O1)N1CCN(c2ccccc2)CC1 | inactive
C/C(=N\N)c1ccc2ccccc2c1 | inactive
COc1ccc(NC(=O)N(C)C[C@H]2OCCCC[C@H](C)Oc3ccc(NS(=O)(=O)c4ccc(C)cc4)cc3C(=O)N([C@@H](C)CO)C[C@@H]2C)cc1 | inactive
Cc1ccc(S(=O)(=O)Nc2cccc3c2O[C@@H](CN(C)S(=O)(=O)c2cn(C)cn2)[C@H](C)CN([C@H](C)CO)C3=O)cc1 | inactive
O=C(C[C@@H]1C[C@H]2c3cc(NC(=O)NC4CCCC4)ccc3O[C@H]2[C@H](CO)O1)NCc1ccc(Oc2ccccc2)cc1 | inactive
CO[C@H]1CN(C)C(=O)c2cc(NS(C)(=O)=O)ccc2OC[C@@H](C)N(C(=O)C2CCOCC2)C[C@@H]1C | inactive
COc1ccc(CN(C)C[C@H]2OCCCC[C@H](C)Oc3ccc(NS(=O)(=O)c4ccccc4)cc3C(=O)N([C@@H](C)CO)C[C@H]2C)cc1 | inactive
C[C@@H]1CN([C@H](C)CO)C(=O)c2cc(NC(=O)C3CCCCC3)ccc2O[C@@H](C)CCCCO[C@H]1CN(C)C(=O)Nc1ccccc1 | inactive
NCC[C@H]1CC[C@H](NC(=O)c2ccccc2F)[C@H](CO)O1 | inactive
CC12CCC(=O)C=C1C=CC1C2CCC2(C)C1CCC21CCC(=O)O1 (stereo not drawn) | inactive
COc1cc2c(cc1O)[C@H](c1ccc(CN3CCCC3)cc1)N(Cc1sc3ccccc3c1Cl)CC2 | inactive
C[C@@H]1CCCCO[C@H](CN(C)Cc2ccc(Cl)c(Cl)c2)[C@@H](C)CN([C@H](C)CO)C(=O)c2cc(NC(=O)c3ccncc3)ccc2O1 | inactive
CCCNC(=O)N1C[C@H](C)[C@@H](OC)CN(C)C(=O)c2cc(NS(=O)(=O)CC(F)(F)F)ccc2OC[C@H]1C | inactive
COCC(=O)N(C)C[C@H]1Oc2cc(C#Cc3cccnc3)ccc2S(=O)(=O)N([C@@H](C)CO)C[C@H]1C | inactive
C[C@H]1CN([C@@H](C)CO)C(=O)c2cccc(NC(=O)c3cnccn3)c2O[C@H]1CN(C)Cc1ccc2c(c1)OCO2 | inactive
C[C@@H]1CCCCO[C@H](CN(C)S(=O)(=O)c2cccs2)[C@@H](C)CN([C@H](C)CO)C(=O)c2cc(NS(=O)(=O)c3ccc(Cl)cc3)ccc2O1 | inactive
C[C@H](CO)N1C[C@H](C)[C@@H](CN(C)Cc2ccc(C(=O)Nc3ccccc3N)cc2)Oc2ccc(NS(C)(=O)=O)cc2C1=O | inactive
COc1ccc(NC(=O)Nc2ccc3c(c2)C(=O)N([C@@H](C)CO)C[C@H](C)[C@@H](CN(C)Cc2ccncc2)OCCCC[C@@H](C)O3)cc1 | inactive
C[C@@H]1CCCCO[C@@H](CN(C)Cc2ccc(Cl)c(Cl)c2)[C@H](C)CN([C@@H](C)CO)C(=O)c2cc(NC(=O)c3ccccc3)ccc2O1 | active
C[C@@H]1CN([C@H](C)CO)C(=O)c2cc(NS(=O)(=O)c3cn(C)cn3)ccc2O[C@@H]1CN(C)S(=O)(=O)c1ccccc1 | inactive
C[C@@H]1CN([C@H](C)CO)C(=O)Cc2cc(NC(=O)Cc3cn(C)c4ccccc34)ccc2O[C@@H]1CN(C)C(=O)Nc1cccc2ccccc12 | inactive
CCOC(=O)Cc1n[nH]c(=O)[nH]c1=O | inactive
O=C(Cc1ccccn1)NCC[C@H]1CC[C@H](NC(=O)CN2CCOCC2)[C@H](CO)O1 | inactive
C[C@@H]1CN([C@H](C)CO)C(=O)c2cc(NC(=O)CCN3CCOCC3)ccc2O[C@H]1CN(C)S(=O)(=O)c1ccccc1 | inactive
C[C@H]1CN([C@@H](C)CO)S(=O)(=O)c2ccc(C#CCN(C)C)cc2O[C@H]1CN(C)Cc1ccccc1F | inactive
C[C@H](CO)N1C[C@H](C)[C@@H](CN(C)S(=O)(=O)c2ccccc2)Oc2ccc(NS(C)(=O)=O)cc2CC1=O | inactive

System: HepG2
Experiment: cytotoxicity call (relative viability < 0.9)
Details: 10 µM

Compound | cytotoxicity call
C[C@H]1CN([C@@H](C)CO)C(=O)c2cc(NC(=O)Nc3ccc(C(F)(F)F)cc3)ccc2O[C@H]1CN(C)C(=O)Nc1ccc2c(c1)OCO2 | inactive
CCS(=O)(=O)N(C)C[C@@H]1OCc2ccccc2-c2c(n(C)c3ccccc23)C(=O)N([C@H](C)CO)C[C@@H]1C | inactive
C[C@@H]1CN([C@@H](C)CO)C(=O)c2cc(NC(=O)Nc3ccc(C(F)(F)F)cc3)ccc2O[C@@H](C)CCCCO[C@H]1CN(C)S(=O)(=O)c1cccs1 | inactive
Cc1noc(C)c1NC(=O)N(C)C[C@H]1Oc2ccc(NC(=O)CCN3CCOCC3)cc2C(=O)N([C@H](C)CO)C[C@@H]1C | inactive
C[C@H](CO)N1C[C@H](C)[C@@H](CN(C)CC2CCCCC2)OCCCC[C@H](C)Oc2ccc(NC(=O)Nc3ccc(C(F)(F)F)cc3)cc2C1=O | active
O=C(O)CCC(=O)NCc1cccnc1 | inactive
CN1C(C(=O)Nc2ccccn2)=C(O)c2ccccc2S1(=O)=O | inactive
C[C@@H]1CN([C@@H](C)CO)C(=O)Cc2cc(NC(=O)Nc3ccc(C(F)(F)F)cc3)ccc2O[C@@H]1CN(C)Cc1ccc2c(c1)OCO2 | active
O=C(O)c1ccc2c(c1)OCO2 | inactive
O=C(C[C@@H]1CC=CCCC(=O)OC[C@@H](Cc2c[nH]c3ccccc23)NC1=O)N[C@H](CO)Cc1ccccc1 | inactive
O=C1OCCC/C=C\[C@H]2O[C@@]34C=CCN(c5ccc6ccccc6c5)C(=O)[C@H]3N(CCCO)C(=O)[C@@H]4[C@@H]12 | inactive
Cc1noc(C)c1S(=O)(=O)N(C)C[C@H]1Oc2ccc(NC(=O)NC3CCCCC3)cc2CC(=O)N([C@H](C)CO)C[C@H]1C | inactive
O=C(C[C@H]1CC[C@H]2[C@@H](COC[C@@H](O)CN2C(=O)c2ccncc2)O1)NC1CCC1 | inactive
C[C@H]1CCCCO[C@@H](CN(C)C(=O)Nc2ccccc2)[C@@H](C)CN([C@@H](C)CO)C(=O)c2cc(NC(=O)Nc3cccc4ccccc34)ccc2O1 | inactive
O=C(C[C@H]1CC[C@H]2[C@@H](COC[C@H](O)CN2C(=O)Nc2ccc3c(c2)OCO3)O1)N1CCN(c2ccccc2)CC1 | inactive
C/C(=N\N)c1ccc2ccccc2c1 | inactive
COc1ccc(NC(=O)N(C)C[C@H]2OCCCC[C@H](C)Oc3ccc(NS(=O)(=O)c4ccc(C)cc4)cc3C(=O)N([C@@H](C)CO)C[C@@H]2C)cc1 | inactive
Cc1ccc(S(=O)(=O)Nc2cccc3c2O[C@@H](CN(C)S(=O)(=O)c2cn(C)cn2)[C@H](C)CN([C@H](C)CO)C3=O)cc1 | inactive
O=C(C[C@@H]1C[C@H]2c3cc(NC(=O)NC4CCCC4)ccc3O[C@H]2[C@H](CO)O1)NCc1ccc(Oc2ccccc2)cc1 | inactive
CO[C@H]1CN(C)C(=O)c2cc(NS(C)(=O)=O)ccc2OC[C@@H](C)N(C(=O)C2CCOCC2)C[C@@H]1C | inactive

Compound | cytotoxicity call
COc1ccc(CN(C)C[C@H]2OCCCC[C@H](C)Oc3ccc(NS(=O)(=O)c4ccccc4)cc3C(=O)N([C@@H](C)CO)C[C@H]2C)cc1 | inactive
C[C@@H]1CN([C@H](C)CO)C(=O)c2cc(NC(=O)C3CCCCC3)ccc2O[C@@H](C)CCCCO[C@H]1CN(C)C(=O)Nc1ccccc1 | inactive
NCC[C@H]1CC[C@H](NC(=O)c2ccccc2F)[C@H](CO)O1 | inactive
CC12CCC(=O)C=C1C=CC1C2CCC2(C)C1CCC21CCC(=O)O1 (stereo not drawn) | inactive
COc1cc2c(cc1O)[C@H](c1ccc(CN3CCCC3)cc1)N(Cc1sc3ccccc3c1Cl)CC2 | inactive
C[C@@H]1CCCCO[C@H](CN(C)Cc2ccc(Cl)c(Cl)c2)[C@@H](C)CN([C@H](C)CO)C(=O)c2cc(NC(=O)c3ccncc3)ccc2O1 | inactive
CCCNC(=O)N1C[C@H](C)[C@@H](OC)CN(C)C(=O)c2cc(NS(=O)(=O)CC(F)(F)F)ccc2OC[C@H]1C | inactive
COCC(=O)N(C)C[C@H]1Oc2cc(C#Cc3cccnc3)ccc2S(=O)(=O)N([C@@H](C)CO)C[C@H]1C | inactive
C[C@H]1CN([C@@H](C)CO)C(=O)c2cccc(NC(=O)c3cnccn3)c2O[C@H]1CN(C)Cc1ccc2c(c1)OCO2 | inactive
C[C@@H]1CCCCO[C@H](CN(C)S(=O)(=O)c2cccs2)[C@@H](C)CN([C@H](C)CO)C(=O)c2cc(NS(=O)(=O)c3ccc(Cl)cc3)ccc2O1 | inactive
C[C@H](CO)N1C[C@H](C)[C@@H](CN(C)Cc2ccc(C(=O)Nc3ccccc3N)cc2)Oc2ccc(NS(C)(=O)=O)cc2C1=O | inactive
COc1ccc(NC(=O)Nc2ccc3c(c2)C(=O)N([C@@H](C)CO)C[C@H](C)[C@@H](CN(C)Cc2ccncc2)OCCCC[C@@H](C)O3)cc1 | active
C[C@@H]1CCCCO[C@@H](CN(C)Cc2ccc(Cl)c(Cl)c2)[C@H](C)CN([C@@H](C)CO)C(=O)c2cc(NC(=O)c3ccccc3)ccc2O1 | active
C[C@@H]1CN([C@H](C)CO)C(=O)c2cc(NS(=O)(=O)c3cn(C)cn3)ccc2O[C@@H]1CN(C)S(=O)(=O)c1ccccc1 | inactive
C[C@@H]1CN([C@H](C)CO)C(=O)Cc2cc(NC(=O)Cc3cn(C)c4ccccc34)ccc2O[C@@H]1CN(C)C(=O)Nc1cccc2ccccc12 | inactive
CCOC(=O)Cc1n[nH]c(=O)[nH]c1=O | inactive
O=C(Cc1ccccn1)NCC[C@H]1CC[C@H](NC(=O)CN2CCOCC2)[C@H](CO)O1 | inactive
C[C@@H]1CN([C@H](C)CO)C(=O)c2cc(NC(=O)CCN3CCOCC3)ccc2O[C@H]1CN(C)S(=O)(=O)c1ccccc1 | inactive
C[C@H]1CN([C@@H](C)CO)S(=O)(=O)c2ccc(C#CCN(C)C)cc2O[C@H]1CN(C)Cc1ccccc1F | inactive
C[C@H](CO)N1C[C@H](C)[C@@H](CN(C)S(=O)(=O)c2ccccc2)Oc2ccc(NS(C)(=O)=O)cc2CC1=O | inactive
